# Reference: the supplement of paper PMC4604168 (melanoma cell lines)
# This is one part of the list. Many values rest on one well or one pass, so single values are uncertain.
# Key:
# Experiment in all cases: cell count relative to DMSO control; melanoma cells; higher = more viable cells
# Details in all cases: library dose: low library concentration; 72 h
# MZ2-MEL = system: MZ2-MEL
# MeWo = system: MeWo
# RPMI7951 = system: RPMI7951
# RVH-421 = system: RVH-421
# SkMel28 = system: SkMel28
# SkMel30 = system: SkMel30
# SkMel5 = system: SkMel5
# UACC257 = system: UACC257
# UACC62 = system: UACC62
# WM115 = system: WM115
# WM1716 = system: WM1716
# WM1745 = system: WM1745
# WM3526 = system: WM3526
# WM3619 = system: WM3619
# WM451Lu = system: WM451Lu
# 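Note: cell number obtained by counting DAPI-stained nuclei in high-throughput microscope images with image analysis software, screen run in 1,536-well plates.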
Structure (SMILES),cell count (MZ2-MEL),cell count (MeWo),cell count (RPMI7951),cell count (RVH-421),cell count (SkMel28),cell count (SkMel30),cell count (SkMel5),cell count (UACC257),cell count (UACC62),cell count (WM115),cell count (WM1716),cell count (WM1745),cell count (WM3526),cell count (WM3619),cell count (WM451Lu)
"COc1cc2c(Oc3ccc4[nH]c(C)cc4c3F)ncnc2cc1OCCCN1CCCC1 [cediranib] + COc1cc2ncnc(Nc3ccc(Oc4ccccc4)cc3)c2cc1OC [SrcI1] (first compound 0.4 µM, partner dose 2 µM)",94.2%,98.3%,94.4%,102%,99.2%,105%,86.4%,94.2%,94.2%,94%,97%,87.6%,88.5%,77.4%,128%
"COc1cc2c(Oc3ccc4[nH]c(C)cc4c3F)ncnc2cc1OCCCN1CCCC1 [cediranib] + O=S(=O)(c1ccccc1)N(CC(F)(F)F)c1ccc(C(O)(C(F)(F)F)C(F)(F)F)cc1 [T0901317] (first compound 0.4 µM, partner dose 1.4 µM)",99.1%,102%,116%,91.4%,88.8%,96.3%,82.7%,75.9%,94.4%,86%,86.6%,84.1%,85.2%,91.7%,97.9%
"CC(C)(C)c1cnc(CSc2cnc(NC(=O)C3CCNCC3)s2)o1 + CCN(CC)CCCCNc1ncc2cc(-c3cc(OC)cc(OC)c3)c(NC(=O)NC(C)(C)C)nc2n1 [PD173074] (first compound 0.01 µM, partner dose 0.1 µM)",91.6%,97.9%,95.4%,99.4%,88.1%,103%,93.4%,96.3%,80.9%,92.2%,88.4%,99.6%,105%,107%,93.1%
"COc1cc2c(Oc3ccc4[nH]c(C)cc4c3F)ncnc2cc1OCCCN1CCCC1 [cediranib] + O=C(O)C(=O)Nc1sc2c(c1C(=O)O)CCNC2 [TCS401] (first compound 0.4 µM, partner dose 1.66667 µM)",100%,103%,82.2%,88%,84.8%,109%,95.8%,65.9%,91.3%,96.5%,112%,93.6%,106%,94.9%,92.2%
"CN(NC(=O)CC(=O)NN(C)C(=S)c1ccccc1)C(=S)c1ccccc1 + CC(C)CCN1c2nc(Nc3cc(F)c(O)c(F)c3)ncc2N(C)C(=O)C1C [BID1870] (first compound 0.006 µM, partner dose 0.2 µM)",103%,71.6%,91.6%,78.7%,76.6%,102%,86.9%,74.1%,68.9%,86.1%,91.1%,38.6%,83.8%,57.6%,85%
"CC(C)(C)c1cnc(CSc2cnc(NC(=O)C3CCNCC3)s2)o1 + N#Cc1c(O)c2c(-c3ccc(-c4ccccc4O)cc3)csc2[nH]c1=O [A769662] (first compound 0.01 µM, partner dose 2 µM)",104%,96.6%,79%,101%,88%,83.5%,102%,81.5%,90.7%,109%,96.5%,103%,112%,114%,108%
"CCc1ccc(CCOc2ccc(CC3SC(=O)NC3=O)cc2)nc1 (stereo not given) [pioglitazone] + CCN(CC)CCCCNc1ncc2cc(-c3cc(OC)cc(OC)c3)c(NC(=O)NC(C)(C)C)nc2n1 [PD173074] (first compound 2 µM, partner dose 0.1 µM)",105%,105%,121%,98.8%,97.7%,101%,98.9%,91.6%,98.6%,103%,107%,89%,100%,112%,100%
"COc1cc2c(Oc3ccc4[nH]c(C)cc4c3F)ncnc2cc1OCCCN1CCCC1 [cediranib] + Cn1cc(/C=C2\C(=O)Nc3cccnc32)c2ccccc21 [GW441756] (first compound 0.4 µM, partner dose 0.4 µM)",95%,106%,95.6%,94.3%,83.4%,92.3%,83.7%,82.5%,78.9%,95.6%,103%,85.8%,89.9%,135%,118%
"Cc1ccc(NC(=O)c2cccc(N(C)C)c2)cc1NC(=O)c1ccc(O)cc1 + O=c1cc(-c2cccc3c2Sc2ccccc2S3)oc(N2CCOCC2)c1 [KU55933] (first compound 2 µM, partner dose 1 µM)",72.8%,105%,76.5%,101%,82.1%,101%,99.3%,127%,113%,110%,124%,94%,91.2%,98.3%,106%
"CCc1ccc(CCOc2ccc(CC3SC(=O)NC3=O)cc2)nc1 (stereo not given) [pioglitazone] + N#Cc1c(O)c2c(-c3ccc(-c4ccccc4O)cc3)csc2[nH]c1=O [A769662] (first compound 2 µM, partner dose 2 µM)",109%,97.2%,97.3%,112%,95.5%,119%,110%,107%,115%,97.6%,111%,92.2%,108%,90%,93.9%
